Measured values published in a collection of fitness landscapes (doi:10.1126/science.1257360).
Some of the results follow.

B1: PhoQ; a variant is named by its letters at X, in order, P23837 (parent)
chain: MKKLLRLFFPLSLRVRFLLATAAVVLVLSLAYGMVALIGYSVSFDKTTFRLLRGESNLFYTLAKWENNKLHVELPENIDKQSPTMTLIYDENGQLLWAQRDVPWLMKMIQPDWLKSNGFHEIEADVNDTSLLLSGDHSIQQQLQEVREDDDDAEMTHSVAVNVYPATSRMPKLTIVVVDTIPVELKSSYMVWSWFIYVLSANLLLVIPLLWVAAWWSLRPIEALAKEVRELEEHNRELLNPATTRELTSLVRNLNRLLKSERERYDKYRTTLTDLTHSLKTPLXXLQXXLRSLRSEKMSVSDAEPVMLEQISRISQQIGYYLHRASMRGGTLLSRELHPVAPLLDNLTSALNKVYQRKGVNISLDISPEISFVGEQNDFVEVMGNVLDNACKYCLEFVEISARQTDEHLYIVVEDDGPGIPLSKREVIFDRGQRVDTLRPGQGVGLAVAREITEQYEGKIVAGESMLGGARMEVIFGRQHSAPKDE

Variants of: B1
Assay: enrichment ratio after two sorts for PhoP signalling (ratio (wild type AVST 3.29)); higher = more functional
Conditions: with PhoP (E. coli)

Variant	enrichment ratio
DNDM	≤ 0.25
GIML	8.24
LWEK	≤ 0.25
MHEE	≤ 0.25
DMNR	≤ 0.25
SHMQ	5.56
MSFY	12.3
KTLD	≤ 0.25
KAIT	≤ 0.25
VMLC	≤ 0.25
TEFV	8.47
PKSS	≤ 0.25
QANL	≤ 0.25
RCVH	≤ 0.25
ICEW	≤ 0.25
IMDR	≤ 0.25
VEFI	≤ 0.25
VSKT	≤ 0.25
NKQY	≤ 0.25
GRIS	≤ 0.25
PTNH	≤ 0.25
FTWP	≤ 0.25
YERD	≤ 0.25
PWLC	≤ 0.25
PQRN	≤ 0.25

Variant	enrichment ratio
TQAY	17
NDQG	≤ 0.25
QVRN	≤ 0.25
MKHC	≤ 0.25
YPWY	≤ 0.25
MMVI	≤ 0.25
FVVH	≤ 0.25
NNGQ	≤ 0.25
VEFW	≤ 0.25
HVWQ	≤ 0.25
FDMH	≤ 0.25
YSSI	0.437
IFVF	≤ 0.25
PAIR	≤ 0.25
IQQK	≤ 0.25
ADHP	≤ 0.25
WMQF	≤ 0.25
SVPY	≤ 0.25
NKSM	≤ 0.25
GPAC	≤ 0.25
NTVT	≤ 0.25
HQME	≤ 0.25
TGME	≤ 0.25
YVTC	0.38
AADI	≤ 0.25

Variant	enrichment ratio
NMTL	≤ 0.25
IFHR	≤ 0.25
SWRA	≤ 0.25
RPNI	≤ 0.25
LYNK	≤ 0.25
NDQL	≤ 0.25
RKRT	≤ 0.25
IDDS	≤ 0.25
RTEH	≤ 0.25
VFWQ	≤ 0.25
SPTW	≤ 0.25
TYRG	≤ 0.25
WSRW	≤ 0.25
WSAE	≤ 0.25
NRED	≤ 0.25
WMRF	≤ 0.25
QQYC	≤ 0.25
DMEL	≤ 0.25
MVMS	≤ 0.25
HTPC	≤ 0.25
HSVG	≤ 0.25
SWAK	≤ 0.25
QEHL	4.43
IGKI	≤ 0.25
SRTQ	≤ 0.25

Variant	enrichment ratio
IKRP	≤ 0.25
WSNW	≤ 0.25
AAYF	≤ 0.25
SALI	12.2
FKGD	≤ 0.25
SMMN	19.5
EADC	≤ 0.25
YHHY	≤ 0.25
HCNP	≤ 0.25
STDS	≤ 0.25
AFQS	≤ 0.25
QYMW	≤ 0.25
MCAV	9.16
AGAQ	1.95
RMLF	≤ 0.25
WDAW	≤ 0.25
GPPV	≤ 0.25
IPGD	≤ 0.25
GNNY	≤ 0.25
HFNQ	≤ 0.25
STYM	0.458
NNCR	≤ 0.25
MGCT	≤ 0.25
VVRM	≤ 0.25
ENRA	≤ 0.25

Variant	enrichment ratio
SFDH	≤ 0.25
GGWF	≤ 0.25
SIGR	1.85
VFDT	≤ 0.25
SETQ	8.7
KHAM	≤ 0.25
NPGR	≤ 0.25
WHCN	≤ 0.25
PNRW	≤ 0.25
YPEQ	≤ 0.25
DNYL	≤ 0.25
PDSW	≤ 0.25
RHTD	≤ 0.25
EANR	≤ 0.25
KRGM	≤ 0.25
FYFR	≤ 0.25
YRKE	≤ 0.25
SEII	8.85
IIKV	≤ 0.25
AVMV	2.94
ADKI	≤ 0.25
LIRW	≤ 0.25
DGCN	≤ 0.25
KIFE	≤ 0.25
DTYW	≤ 0.25

Variant	enrichment ratio
ASFG	1.66
IKFE	≤ 0.25
VYQC	≤ 0.25
IFTS	≤ 0.25
VWYE	≤ 0.25
GMNN	≤ 0.25
PTCP	≤ 0.25
YAIC	≤ 0.25
YQKF	≤ 0.25
LTSS	≤ 0.25
MILC	6.27
GQTP	≤ 0.25
YPHW	≤ 0.25
MRAQ	≤ 0.25
EFFQ	≤ 0.25
GDHK	≤ 0.25
RPMT	≤ 0.25
VDHC	≤ 0.25
MGEM	≤ 0.25
RHFF	≤ 0.25
SKCM	11
GQCI	2.43
PMFK	≤ 0.25
WEHG	≤ 0.25
RHGG	≤ 0.25

Variant	enrichment ratio
NTLI	≤ 0.25
QIRT	≤ 0.25
IRDQ	≤ 0.25
HWSA	≤ 0.25
DSPM	≤ 0.25
IRKS	≤ 0.25
ASWC	≤ 0.25
PCMV	≤ 0.25
QEKW	≤ 0.25
IVMR	≤ 0.25
TMYD	≤ 0.25
LTEH	≤ 0.25
KSPR	≤ 0.25
GHYS	≤ 0.25
HKSN	≤ 0.25
GYVH	≤ 0.25
MCCS	≤ 0.25
PDCV	≤ 0.25
QTYM	0.346
WYMR	≤ 0.25
WPNC	≤ 0.25
RSRK	≤ 0.25
PVQN	≤ 0.25
FYLH	≤ 0.25
IMRD	≤ 0.25

Variant	enrichment ratio
IMKL	≤ 0.25
CLST	5.26
SQYR	≤ 0.25
HVER	≤ 0.25
SFGT	≤ 0.25
KKHI	≤ 0.25
KSIR	≤ 0.25
GLVL	5.57
YMLA	≤ 0.25
VNPI	≤ 0.25
WAKP	≤ 0.25
MQER	≤ 0.25
QEQC	≤ 0.25
DLFS	≤ 0.25
VICE	≤ 0.25
HEHA	≤ 0.25
KITK	≤ 0.25
SINI	1.72
RVTL	≤ 0.25
IWKD	≤ 0.25
